Hit rate of the full screen: of about 310,000 compounds, about 2,200 (0.71%) showed an effect of 50% or more. The effect is printed as a negative number. Some of the results follow.
biological target: human ether-à-go-go-related gene (hERG) potassium channel (human, UniProt Q12809); experiment: primary screen, population patch clamp on CHO cells stably expressing hERG
Sequence (Q12809 whole entry, looked up): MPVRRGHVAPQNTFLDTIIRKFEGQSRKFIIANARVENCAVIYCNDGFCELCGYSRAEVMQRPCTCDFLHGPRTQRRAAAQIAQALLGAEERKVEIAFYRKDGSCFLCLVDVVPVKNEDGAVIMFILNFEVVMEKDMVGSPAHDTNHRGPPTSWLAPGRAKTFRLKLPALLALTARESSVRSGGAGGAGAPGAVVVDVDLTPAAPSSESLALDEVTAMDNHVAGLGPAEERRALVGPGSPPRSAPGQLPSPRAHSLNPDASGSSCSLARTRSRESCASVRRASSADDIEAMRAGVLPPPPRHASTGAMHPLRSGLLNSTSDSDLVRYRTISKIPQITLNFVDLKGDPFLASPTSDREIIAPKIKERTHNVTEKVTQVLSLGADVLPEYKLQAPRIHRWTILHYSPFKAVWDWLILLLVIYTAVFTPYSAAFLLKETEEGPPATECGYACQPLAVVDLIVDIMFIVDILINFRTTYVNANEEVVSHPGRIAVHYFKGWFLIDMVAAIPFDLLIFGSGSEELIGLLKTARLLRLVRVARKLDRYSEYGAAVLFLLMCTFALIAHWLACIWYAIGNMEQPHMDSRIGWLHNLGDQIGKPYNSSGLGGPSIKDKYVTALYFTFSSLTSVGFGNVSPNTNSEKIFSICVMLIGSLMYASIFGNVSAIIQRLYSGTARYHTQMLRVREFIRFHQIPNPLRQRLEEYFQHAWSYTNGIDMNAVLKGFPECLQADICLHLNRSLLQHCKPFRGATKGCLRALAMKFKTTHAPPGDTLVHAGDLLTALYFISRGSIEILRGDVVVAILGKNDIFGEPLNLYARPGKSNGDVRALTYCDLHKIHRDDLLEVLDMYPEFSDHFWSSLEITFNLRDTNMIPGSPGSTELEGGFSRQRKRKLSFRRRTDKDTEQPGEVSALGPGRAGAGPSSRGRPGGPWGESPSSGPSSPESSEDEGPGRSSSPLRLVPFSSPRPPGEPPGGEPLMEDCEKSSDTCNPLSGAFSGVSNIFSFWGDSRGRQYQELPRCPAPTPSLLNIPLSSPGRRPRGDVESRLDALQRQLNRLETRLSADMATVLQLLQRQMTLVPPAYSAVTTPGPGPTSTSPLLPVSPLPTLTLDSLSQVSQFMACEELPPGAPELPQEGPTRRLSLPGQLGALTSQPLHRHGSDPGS

Row | SMILES | hERG current change (%, negative = inhibition) at 1uM
1 | CC1(C)CC(=O)C(C=NCCCn2ccnc2)=C(O)C1 | 1.22%
2 | COc1cc(NC(=O)COc2ccccc2Cl)ccc1NC(=O)C(C)C | 13.6%
3 | O=C(CSc1nnc(-c2ccco2)o1)c1ccc(F)c(F)c1 | 11.5%
4 | CCC1(CC)C(=O)C2=C3C1[C@H](C(=O)OC)CC(C(=O)OC)C[C@H]3n1c(=O)n(C)c(=O)n1[C@H]2C (stereo partly shown) | 17.9%
5 | CS(=O)(=O)c1ccccc1-c1nnc(NC(=O)c2ccco2)o1 | 17.6%
6 | O=C(N/N=C/c1cccs1)c1cccc(NC(=O)c2ccc(Cl)cc2)c1 | 10.7%
7 | Cc1sc(NC(=S)NC(=O)c2ccco2)c(C(N)=O)c1C | 20.1%
8 | O=C(NNC(=S)NCC1CCCO1)c1cc(Br)ccc1Cl (stereo not shown) | 13.8%
9 | CCc1c(O)cc2n(c1=O)-c1ccccc1C2(C)C | 8.42%
10 | O=C1CCC(C(=O)N2CCCCO2)CN1CCc1ccc(Cl)cc1 (stereo not shown) | 1.45%
11 | O=C(N/N=C/c1cccc(F)c1)NC1CCCCC1 | 3.4%
12 | CC(C)(C)OC(=O)NC(CCNC=C1C(=O)OC(C)(C)OC1=O)C(=O)O (stereo not shown) | 14.6%
13 | CCN(CC)S(=O)(=O)c1ccc(S(=O)(=O)N(Cc2ccccn2)Cc2ccco2)cc1 | -22.8%
14 | CC(NC(=O)c1cccnc1Sc1ccccc1)c1ccc(S(N)(=O)=O)cc1 (stereo not shown) | 17.4%
15 | Cc1ccc(S(=O)(=O)n2ccc(-c3cccc(OCc4c(F)cccc4Cl)c3)n2)cc1 | 14.4%
16 | CN(C)S(=O)(=O)c1ccc(Cl)c(NC(=O)CN2CCNC(=O)C2)c1 | -8.8%
17 | C=CCSc1n[nH]c(-c2ccccc2)n1 | 2.69%
18 | CCn1c(SCC(N)=O)nc2c1c(=O)n(C)c(=O)n2C | 19.1%
19 | COc1ccc(N2CCN(C(=O)c3ccc4c(c3)NC(=O)C(CSCc3c(F)cccc3Cl)N4)CC2)cc1 (stereo not shown) | 13.1%
20 | Cc1cc2cc(C#N)c(N3CCOCC3)nc2cc1Cl | 10.5%
21 | CCOc1ccc(Nc2nc(Cc3nnc(SCC(=O)NC4CCCC4)n3C)cs2)cc1 | -13.9%
22 | CCc1nc(N2CCC3(CC2)OCCO3)c2nnn(Cc3ccccc3)c2n1 | 2.78%

Row | SMILES | hERG current change (%, negative = inhibition) at 1uM
23 | CC(=O)C1=C(O)C(=O)N(c2ccc(Br)cn2)C1c1ccc(F)cc1 (stereo not shown) | 15.6%
24 | COc1ccccc1N(C(=O)c1csnn1)C(C(=O)NC1CCCC1)c1ccccc1 (stereo not shown) | 14.2%
25 | COC(=O)C1=C(c2c(C)noc2C)C[C@@H]2CC[C@H]1N2C(=O)N1CCC(O)(c2ccc(Cl)cc2)CC1 | -6.46%
26 | COc1ccc(Cl)cc1NS(=O)(=O)c1cccc(C(=O)NCC(c2ccco2)N(C)C)c1 (stereo not shown) | -8.48%
27 | Cc1n[nH]c(C)c1-c1nc2ccccc2[nH]1 | 4.23%
28 | Cc1nc2ccc(NC(=O)N(C(C)C)C(C)C)cc2s1 | 3.18%
29 | CCN(C(=O)Cc1ccc(Br)cc1)C1CCCCC1 | -2.56%
30 | Cc1cccc(NC(=O)CN2CCC(NC(=O)C3CCCCC3)CC2)c1C | 4.86%
31 | CCn1nc(C(=O)NNC(=O)c2cc(Cl)ccc2OC)c2ccccc2c1=O | 8.9%
32 | C#CCOCCOCCOCCNc1nc(N2CCN(C(=O)C([C@@H](C)CC)n3cc(C(N)CO)nn3)CC2)nc(N2CCN(C(=O)[C@H](CCC(=O)O)n3cc(C(N)CC(C)C)nn3)CC2)n1.Cl (stereo partly shown) | 6.54%
33 | O=C(Nc1cccc(F)c1)c1cc(S(=O)(=O)N2CCOCC2)cs1 | 11.5%
34 | CC(C)Oc1cccc(C(=O)C2CCCN(Cc3cnc(N4CCCC4)s3)C2)c1 (stereo not shown) | -0.235%
35 | CCOc1cc(NS(=O)(=O)c2ccc(NC(C)=O)cc2)c(OCC)cc1NC(=O)C(C)C | 10.9%
36 | CC1=C(C(=O)OCC(C)C)C(c2cccc(F)c2)N2C(=O)C(C)SC2=N1 (stereo not shown) | 17.6%
37 | O=C1NC(SCCCF)=N/C1=C/c1ccc(-n2cncn2)cc1 | 9.34%
38 | Cc1ccc(S(=O)(=O)N2CCCC2c2nc3ccccc3s2)cc1 (stereo not shown) | 15%
39 | O=C(O)CC(NC(=O)Nc1ccccc1)c1ccc(OC2CCCC2)cc1 (stereo not shown) | 25.5%
40 | Cc1ccc(CSc2nnc(CCNC(=O)OC(C)(C)C)o2)cc1 | 8.43%
41 | O=C([O-])c1ccccc1-c1c2cc(I)c(=O)c(I)c-2oc2c(I)c([O-])c(I)cc12.[Na+] | 6.4%
42 | Cc1ccccc1Cn1cnc2c(nnn2Cc2ccc(F)cc2)c1=O | 2.63%
43 | COc1ccccc1-c1nc(-c2ccccc2)nc(N2CCN(C)CC2)c1C#N | 11.3%
